The results in this text go back to PubChem BioAssay AID485344 (National Center for Advancing Translational Sciences (NCATS), 2010).

The structures appear in SMILES notation. Where “and” joins values, the source holds several entries; their conditions need not be identical. Equal values may be shown once. Out of some 340,000 compounds screened, about 6,900 (2%) were called active. Rule as the data show it: active = inhibition above about 30%; inactive = below that, where a call was filed. Only a part is listed here, and it is no random draw. The source gives no active or inactive call for entries shown without one.

Chain of UniProt P14416 (P14416 whole entry, looked up): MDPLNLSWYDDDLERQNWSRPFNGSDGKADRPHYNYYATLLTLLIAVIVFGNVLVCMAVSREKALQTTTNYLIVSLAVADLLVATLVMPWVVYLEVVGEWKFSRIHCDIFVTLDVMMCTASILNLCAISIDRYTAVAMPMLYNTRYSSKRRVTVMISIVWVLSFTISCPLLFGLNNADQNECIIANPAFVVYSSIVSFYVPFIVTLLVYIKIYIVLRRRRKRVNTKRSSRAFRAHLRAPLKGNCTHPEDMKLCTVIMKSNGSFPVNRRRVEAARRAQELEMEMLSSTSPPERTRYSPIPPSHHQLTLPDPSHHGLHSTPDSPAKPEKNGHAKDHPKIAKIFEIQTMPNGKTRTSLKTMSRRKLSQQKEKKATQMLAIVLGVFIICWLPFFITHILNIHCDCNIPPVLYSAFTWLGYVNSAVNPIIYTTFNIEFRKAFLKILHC

The target in the experiment is D(2) dopamine receptor (Homo sapiens) (UniProt P14416). Kind of experiment: HTS Assay for Allosteric Antagonists of the Human D2 Dopamine Receptor: Primary Screen for Antagonists. Also: 0% is about no effect. As to conditions: HEK293 TREx D2 cells, calcium flux, dopamine EC80; at 10 µM; stronger effect = higher value. An outline of the steps:
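Dopamine at EC80 is the agonist stimulus; test compounds precede it by 180 s. Calcium flux read kinetically in a force-coupled, inducible HEK293 T-REx D2 cell line.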
With `COc1ccc(NC(=O)c2cc3c(=O)n(C)c4ccccc4c3s2)cc1Cl`, the inhibition was 8.03%.

Regarding `CCOc1ccc(-c2cc3c(=O)n(CC(=O)NCc4ccc(OC)cc4)ccn3n2)cc1`, the inhibition came to 0.498%.

Take `CCCc1ccc(OC(=O)CSc2nnc(-c3cccs3)o2)cc1`: the inhibition amounted to 26.8%.

For the compound `CSc1ccc(CCNC(=O)CCn2c(=O)c3cccn3c3cccnc32)cc1`, the inhibition is -6.26%.

With `O=C(Nc1ccc(N2CCCCC2)cc1)c1cccnc1`, the inhibition was active: 33.9%.

On to `Cc1ccc(-c2nc3ccccc3o2)cc1NC(=O)c1cccc2c(Cl)cccc12`, for which the inhibition stood at 6.55%.

`CCC(=O)N1c2ccccc2CC1C(=O)NCCN1CCN(c2cccc(C)c2C)CC1` (stereo unspecified): the inhibition turned out to be 7.74%.

On to `Cc1nc2sccn2c(=O)c1S(=O)(=O)Nc1ccc(N2CCN(S(C)(=O)=O)CC2)cc1`, for which the inhibition was -25.8%.

As for `Cc1ccc(/C=[N+](\[O-])c2ccc(N(C)C)cc2)c2nsnc12`, the inhibition was active: 48.4%.

For the compound `O=C(CSc1nc(-c2ccccc2)[nH]c1-c1ccccc1)Nc1ccc2c(c1)OCO2`, the inhibition is 20.8%.

As for `Cc1cccc(Nc2nc(-c3ccccc3)c3cc(C)ccc3n2)c1`, the inhibition turned out to be 5.67%.

Turning to `Cc1ccccc1NCc1cccn1-c1nnc(N2CCOCC2)s1`, the inhibition was -7.16%.

As to `O=[N+]([O-])c1cc(-c2nc(-c3ccccc3)no2)ccc1N1CCCC1`, the inhibition was -8.26%.

`CCC(Sc1nc2c(sc3ccccc32)c(=O)n1CCCC(=O)NC1CCCC1)C(=O)Nc1cccc(OC)c1` (stereo unspecified): the inhibition is -11.8%.

For the compound `COc1cccc(CNC(=O)CCc2nnc3n(CC(C)C)c(=O)c4ccccc4n23)c1`, the inhibition was -9.06%.

Consider `Cc1sc2c(c1C)c(=O)n(-c1ccccc1)c(=O)n2CC(=O)c1ccc(Cl)cc1`, for which the inhibition is -14.2%.

As for `CC(C)OCCCn1c(SCC(=O)Nc2ccc(F)cc2)nc2c(sc3ccccc32)c1=O`, the inhibition came out at 17.8%.

For `CCCCCOC(=O)CSc1nc2sc3c(c2c(=O)n1Cc1ccccc1)CC(C)(C)OC3`, the inhibition worked out at 1.87%.

For `CC(C)(C)C1CCc2c(sc(NC(=O)Cn3nnc(-c4cccc(C(F)(F)F)c4)n3)c2C#N)C1` (stereo unspecified), the inhibition was -11.7%.

Take `Cn1c(CNC(=O)CSc2n[nH]c(-c3ccccc3)n2)nc2ccccc21`: the inhibition is -1.82%.

For the compound `O=C(Cn1c(=O)n(-c2ccc(Cl)cc2)c(=O)c2c3c(sc21)CCC3)c1ccc(F)cc1`, the inhibition amounted to 5.32%.

On to `CCN1CCSc2ccc(C(=O)NCc3cccc(F)c3)cc21`, for which the inhibition is -2.56% and active: 44.2%.

As for `COc1ccccc1N1CCN(C(=O)CSc2nc3ccccc3nc2Cc2ccc(F)cc2)CC1`, the inhibition amounted to 20%.

In the case of `CCOC(=O)C1(CCOc2ccccc2)CCN(Cc2ccc(O)c(OCC)c2)CC1`, the inhibition was active: 39%.

With `Cc1csc2nc(COc3ccc(NC(=O)COc4ccccc4F)cc3)cc(=O)n12`, the inhibition came out at 18.5%.

Turning to `CC(C(=O)NCc1ccccc1)N1Cc2ccccc2C1=O` (stereo unspecified), the inhibition is -3.55%.

With `CC1CCN(C(=O)CSc2nc(-c3ccc(C(C)C)cc3)no2)CC1`, the inhibition was -3.41%.

`CCC1CCCCN1CCCNC(=O)c1ccc2c(c1)N(Cc1ccccc1F)C(=O)c1ccccc1S2(=O)=O` (stereo unspecified): the inhibition is -3.95%.

In the case of `N#Cc1ccc(COC(=O)Cn2nnc(-c3ccccc3)n2)cc1`, the inhibition was active: 32.5%.

Turning to `CCCS(=O)(=O)N1CC(=O)N(c2ccccc2F)C(C)(C(=O)NC2CCCCCC2)C1` (stereo unspecified), the inhibition is -8.03%.

With `Cc1ccc(C(=O)Nc2ccc3c(c2)N(C)C(=O)c2ccccc2S3)cc1`, the inhibition is -0.643%.

In the case of `COc1cc(CNC(=O)CSCc2nc3cccnc3n2C2CCCCC2)cc(OC)c1OC`, the inhibition turned out to be 17.6%.

In the case of `Cc1ccc(C)c(NC(=O)CCc2nc(-c3ccc(C(C)(C)C)cc3)no2)c1`, the inhibition was -1.61%.

For the compound `CCC(=O)N1CCc2cc(CNC(=O)Nc3ccccc3Cl)ccc21`, the inhibition is -6.18%.

As for `O=C(CCNS(=O)(=O)c1ccc2c(c1)CCCC(=O)N2)NCc1ccccc1Cl`, the inhibition was -6.58%.

For the compound `CCOc1cc(C#N)c(NC(=O)c2cccc(S(=O)(=O)N3CCOCC3)c2)cc1OCC`, the inhibition came to 20.6%.

On to `COc1ccc(C(=O)Nc2ccc(C(=O)OCC(=O)c3cccc4ccccc34)cc2)cc1`, for which the inhibition was active: 76.4%.

On to `CCc1ccc(OCC(O)CN2CCN(c3ccccc3)CC2)cc1` (stereo unspecified), for which the inhibition was active: 109%.

In the case of `CCCc1ccc(OCC(=O)Nc2scc(-c3cccs3)c2C(=O)OC)cc1`, the inhibition is -1.08%.

With `CC(C)c1nc(C#N)c(NCCCn2ccnc2)o1`, the inhibition was active: 43.4%.

As for `O=C(c1ccc2c(c1)N(Cc1ccc(F)cc1)CCS2)N1CCN(c2ccccc2)CC1`, the inhibition turned out to be 13.7%.

With `CCc1c(C)sc2c1CCN(C(=O)Nc1ccccc1C(=O)OC)C2c1ccc(F)cc1` (stereo unspecified), the inhibition is 9.89%.

In the case of `CCCC12CN3CC(C)(CN(C1)C3c1ccccc1Cl)C2=O` (stereo unspecified), the inhibition is 6.92%.

As for `O=C(Nc1ccc(Br)cc1)N1CCC(CN2CCCC2)CC1`, the inhibition was determined as 27.5%.

For `CCNC(=O)c1c(NC(=O)COc2ccc(F)cc2)sc2c1CCCC2`, the inhibition is -8.78%.

On to `COc1ccc(NC(=O)CSc2c3c(nc4ccc(Cl)cc24)CCCC3)cc1Cl`, for which the inhibition was -0.748%.

As to `CCOc1ccc(C2C(C(=O)Nc3ccc(OC)cc3)=C(C)Nc3nc(SCc4ccc(Cl)cc4)nn32)cc1` (stereo unspecified), the inhibition was 0.931%.

As to `Cc1c(Cl)cccc1NC(=O)c1ccc(NC(=O)N2CCSc3ncccc32)cc1`, the inhibition is -5.03%.

For the compound `Cc1ccccc1NC(=O)CS(=O)(=O)c1cccc2nsnc12`, the inhibition is 20.2%.

For the compound `Cc1ccc(CNC(=O)CSc2c3c(nc4ccc(Cl)cc24)CCCC3)cc1`, the inhibition is 3.49%.

`Cc1c(C2=CCN(S(=O)(=O)c3ccc(Br)cc3)CC2)c2ccccc2n1CC(=O)N1CCCC1`: the inhibition was -0.0957%.

Consider `COc1ccc2nc3oc(C(=O)Nc4cccc(C(F)(F)F)c4)cc3cc2c1`, for which the inhibition was -6.16%.

Take `Cc1cc(C)cc(NS(=O)(=O)c2ccc3c(c2)OCC(C(=O)N2CCCC2)O3)c1` (stereo unspecified): the inhibition worked out at 4.18%.

For the compound `CCOc1ccc(NC(=O)CN(Cc2ccccc2)S(=O)(=O)c2ccc(Cl)cc2)cc1`, the inhibition worked out at 4.07%.

As to `COc1ccc(-n2nc(C(=O)Nc3ccc(Br)cc3C)c3c4ccccc4n(C)c3c2=O)cc1`, the inhibition worked out at 6.06%.

For `CCOc1ccc(C2C=C(c3cccc(OC)c3)Nc3nnnn32)cc1` (stereo unspecified), the inhibition was 6.28%.

Consider `COc1ccc(C(=O)N2CC(=O)Nc3ccc(C)cc3C2c2ccccc2)cc1OC` (stereo unspecified), for which the inhibition was determined as 1.22%.

`CCN(C(=O)Cn1c(SCC(=O)Nc2ccc(OC)cc2)nc2ccccc21)c1cccc(C)c1`: the inhibition came out at 5.2%.

In the case of `CC(C)(C)c1ccc(C(=O)NNc2ncnc3c2cnn3-c2ccccc2)cc1`, the inhibition was 15.8%.

For the compound `O=C(COc1ccccc1)NCC(c1cccs1)S(=O)(=O)c1ccc(Cl)cc1` (stereo unspecified), the inhibition is -19.3%.

As to `Cc1cc(C)n2c(Nc3ccccc3C)c(-c3cccs3)nc2n1`, the inhibition is 11.9%.

As for `COc1cccc(C(=O)Nc2ccc(-n3nncc3-c3ccc(Br)cc3)cc2)c1OC`, the inhibition came out at 15.7%.

Turning to `COc1ccc(OCC(=O)N2CCN(C(=O)c3cc(OC)c(OC)c(OC)c3)CC2)cc1`, the inhibition is -9.75%.

Consider `CCOc1ccccc1NC(=O)N(C)CCc1c(C)nn(CC)c1C`, for which the inhibition was -0.489%.

As for `Cc1ccc(NC(=O)c2ccc(=O)n(CC(=O)Nc3c(C)cc(C)cc3C)n2)cc1`, the inhibition is -11.5%.

Turning to `Oc1ccc(N2CCN(Cc3ccc(OCCCN4CCCCC4)cc3)CC2)cc1`, the inhibition was active: 91.3%.

In the case of `Cc1ccc(COc2ccc3oc(-c4ccccc4)c(C(=O)O)c3c2)cc1`, the inhibition is 10.5%.

As for `Cc1oc2ncnc(N3CCOCC3)c2c1C(=O)N1CCN(c2cccc(C(F)(F)F)c2)CC1`, the inhibition was 3.89%.

Turning to `Cc1ccc(Oc2nc3c(c(=O)n(Cc4ccccc4)c(=O)n3C)n2C)cc1C`, the inhibition was 10.3%.

On to `COc1cccc(-c2ccnc3c(-c4ccc(F)cc4)c(C)nn23)c1`, for which the inhibition was 3.49%.

For the compound `CCCn1c(=N)c(C(=O)NCc2cccnc2)cc2c(=O)n3cccc(C)c3nc21`, the inhibition was 10.6%.

In the case of `COc1ccc(NC(=O)C2=C(C)Nc3ncnn3C2c2ccc(C)o2)cc1` (stereo unspecified), the inhibition is -26.5%.

Consider `CC1(C)CC(=O)c2cc(C(=O)Nc3ccc(Br)cc3)c(=O)[nH]c2C1`, for which the inhibition came out at 16.1%.

For `CCN(C(=O)C1CCC(CNS(=O)(=O)c2cccc3nsnc23)CC1)c1ccccc1` (stereo unspecified), the inhibition came out at 16.1%.

For `CCN(C(=O)C1CCC(CNS(=O)(=O)c2cccc3nsnc23)CC1)c1cccc(C)c1` (stereo unspecified), the inhibition is -1.88%.

`Cc1cc(C)cc(NC(=O)Cn2c(=O)n(C(C)C)c(=O)c3oc4ccccc4c32)c1`: the inhibition was found to be 0.0976%.

As to `O=C(Cc1ccc(NC(=O)N2CCSc3ncccc32)cc1)NCc1ccccc1`, the inhibition is 0.138%.

On to `Cc1ccc(S(=O)(=O)N(CC(O)Cn2c3ccccc3c3ccccc32)c2cccc(C(=O)N(C)C)c2)cc1` (stereo unspecified), for which the inhibition is 6.03%.

Take `COc1ccc(C2=NN(S(C)(=O)=O)C(c3cn(-c4ccccc4)nc3-c3cccs3)C2)cc1` (stereo unspecified): the inhibition was -10.3%.

Consider `C#CCN1C(=O)C(O)(CC(=O)c2ccc(OC)c(OC)c2)c2cc(Br)ccc21` (stereo unspecified), for which the inhibition is -21.1%.

For `COc1ccc(C(=O)NCC(c2ccc3c(c2)OCO3)N2CCOCC2)cc1` (stereo unspecified), the inhibition is -28.1%.

Take `Cc1ccc(CN2C(=O)c3ccccc3Sc3ccc(C(=O)NCc4ccco4)cc32)cc1`: the inhibition was -18.1%.

`Cc1cc(C)c(NS(=O)(=O)c2ccc3c(c2)NC(=O)CCS3)c(C)c1`: the inhibition was determined as 0.692%.

In the case of `O=C(COc1ccc(Cl)cc1)N(Cc1ccco1)c1ccccn1`, the inhibition is -9.21%.

Regarding `CC1CCCN(Cc2c(O)ccc3c(=O)c(-c4ccccc4Cl)c(C(F)(F)F)oc23)C1` (stereo unspecified), the inhibition worked out at 1.42%.

As to `O=C(NC1CCCC1)c1ccc(CSc2nc3cccnc3n2Cc2ccccc2F)cc1`, the inhibition is -2.61%.

Take `O=C(Cn1c(-c2cccs2)cc2ccccc21)NCCCN1CCN(c2ccc(F)cc2)CC1`: the inhibition came out at 0.202%.

On to `CCCCCOc1ccccc1Cn1c(=O)oc2ccc(C)cc21`, for which the inhibition was -0.951%.

For the compound `COCCNC(=O)CCSc1nc(-c2ccc(OC)cc2)cc(C(F)(F)F)n1`, the inhibition was -14.6%.

For `Cc1ccc(Nc2c(-c3ccc(N4CCOCC4)cc3)nc3ncccn23)c(C)c1`, the inhibition is -6.01%.

For the compound `CC(=O)c1ccc(NC(=O)CSc2nnc(NC(=O)NC3CCCCC3)s2)cc1`, the inhibition came to 22.6%.

Consider `Cc1ccn2c(Nc3ccc(C(C)C)cc3)c(-c3ccsc3)nc2c1`, for which the inhibition is -4.89%.

With `CC(C)OCCCNC(=O)c1c2c(nc3ccccc13)C(=O)N(C1CCCCC1)C2`, the inhibition worked out at 2.13%.

With `COc1cccc(/C=C/C(=O)OCC(=O)Nc2cc(C(F)(F)F)ccc2Cl)c1`, the inhibition is active: 34.3%.

Regarding `Cc1cccc(Cn2c(CNC(=O)c3ccccc3)nc3ccccc32)c1`, the inhibition was determined as 21.5%.

For the compound `CCOC(=O)c1cc(-c2ccccc2)n(CC(=O)Nc2cc(Cl)c(OC)cc2OC)c1C`, the inhibition is -2.61%.
